Whole data set: some 2,900 compounds, median “IRF Lucia reporter activity, fold change vs agonist alone” near 0.9, cut for the highest 2% near 2.8. The list shows a part of the results.
Tests used:
[1] = tested on: RAW-Dual; assay: IRF Lucia reporter activity, fold change vs agonist alone; cytotoxicity flag (confluency mask): not cytotoxic; higher = enhanced IRF activity
Summary of the method: (§1)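 Cytotoxic wells were those whose IncuCyte confluency was below 70% of agonist controls in both mask sets. The cells were RAW-Dual macrophages at 50,000 cells/well in DMEM on 384-well plates, dosed with 50 nL of library stock by pin tool, stimulated with a PRR agonist 1 h later, and kept at 37 °C, 5% CO2 for 20 hours. IRF and NF-κB reporter activity, as fold change over agonist-alone wells, came from supernatant read by QuantiLuc luminescence and QuantiBlue absorbance, respectively.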

[2] = tested on: RAW-Dual; assay: IRF Lucia reporter activity, fold change vs agonist alone; higher = enhanced IRF activity; conditions: agonist: MPLA (TLR4) […]
Summary of the method: as §1

[3] = tested on: RAW-Dual; assay: IRF Lucia reporter activity, fold change vs agonist alone; cytotoxicity flag (confluency mask): cytotoxic (confluency <70% of control); higher = enhanced IRF activity
Summary of the method: as §1

[4] = agonist: 3'3'-cGAMP (STING) 10 ug/mL
[5] = library stock concentration (final ~1000-fold dilution): 10 mM, cytotoxicity flag (confluency mask): not cytotoxic
[6] = library stock concentration (final ~1000-fold dilution): 10 mM, cytotoxicity flag (confluency mask): cytotoxic (confluency <70% of control)

Cn1c(=O)cc(N2CCCC(N)C2)n(Cc2cc(F)ccc2C#N)c1=O.O=C(O)CCC(=O)O (stereo unspecified) (library stock concentration (final ~1000-fold dilution): 10 mM)
IRF Lucia reporter activity [1, 4]: 1.04
IRF Lucia reporter activity ([1]; agonist: LPS (TLR4) 0.1 ug/mL): 1.26

Cn1c(=O)cc(N2CCCC(N)C2)n(Cc2cc(F)ccc2C#N)c1=O.O=C(O)CCC(=O)O (stereo unspecified)
IRF Lucia reporter activity [2, 5]: 1.13

CC(C)(C)c1cc(O)c(C(C)(C)C)cc1O
IRF Lucia reporter activity [2, 5]: 1.94

CC(C)(C)c1cc(O)c(C(C)(C)C)cc1O (library stock concentration (final ~1000-fold dilution): 10 mM)
IRF Lucia reporter activity [1, 4]: 0.608
IRF Lucia reporter activity ([1]; agonist: LPS (TLR4) 0.1 ug/mL): 1.97

Cc1ccc(S(=O)(=O)Nc2nc3ccccc3nc2Nc2ccc3nsnc3c2)cc1
IRF Lucia reporter activity ([2]; library stock concentration (final ~1000-fold dilution): 2 mM, cytotoxicity flag (confluency mask): not cytotoxic): 1.14

Cc1ccc(S(=O)(=O)Nc2nc3ccccc3nc2Nc2ccc3nsnc3c2)cc1 (library stock concentration (final ~1000-fold dilution): 2 mM)
IRF Lucia reporter activity [1, 4]: 0.727
IRF Lucia reporter activity ([1]; agonist: LPS (TLR4) 0.1 ug/mL): 0.954

NC1(Cc2ccc(Cl)cc2)CCN(c2ncnc3[nH]ccc23)CC1
IRF Lucia reporter activity [2, 5]: 1.04

NC1(Cc2ccc(Cl)cc2)CCN(c2ncnc3[nH]ccc23)CC1 (library stock concentration (final ~1000-fold dilution): 10 mM)
IRF Lucia reporter activity [1, 4]: 1.05
IRF Lucia reporter activity ([1]; agonist: LPS (TLR4) 0.1 ug/mL): 0.584

COc1ccc(-c2ccc3c(N4CCOCC4C)nc(N4CCOCC4C)nc3n2)cc1CO (stereo unspecified) (library stock concentration (final ~1000-fold dilution): 10 mM)
IRF Lucia reporter activity [1, 4]: 0.322
IRF Lucia reporter activity ([1]; agonist: LPS (TLR4) 0.1 ug/mL): 0.421

COc1ccc(-c2ccc3c(N4CCOCC4C)nc(N4CCOCC4C)nc3n2)cc1CO (stereo unspecified)
IRF Lucia reporter activity [2, 5]: 0.506

Cc1cc(C(C)Nc2ccccc2)c2nc(N3CCOCC3)cc(=O)n2c1 (stereo unspecified) (library stock concentration (final ~1000-fold dilution): 10 mM)
IRF Lucia reporter activity [1, 4]: 0.336
IRF Lucia reporter activity ([1]; agonist: LPS (TLR4) 0.1 ug/mL): 1.65

Cc1cc(C(C)Nc2ccccc2)c2nc(N3CCOCC3)cc(=O)n2c1 (stereo unspecified)
IRF Lucia reporter activity [2, 5]: 1.83

O=C1OC(COc2ccccc2[N+](=O)[O-])CC1Cc1ccccc1 (stereo unspecified) (library stock concentration (final ~1000-fold dilution): 10 mM)
IRF Lucia reporter activity [1, 4]: 1.23
IRF Lucia reporter activity ([1]; agonist: LPS (TLR4) 0.1 ug/mL): 1.23

Clc1ccc2nsnc2c1NC1=NCCN1 (library stock concentration (final ~1000-fold dilution): 10 mM)
IRF Lucia reporter activity [1, 4]: 0.968
IRF Lucia reporter activity ([1]; agonist: LPS (TLR4) 0.1 ug/mL): 0.863

Clc1ccc2nsnc2c1NC1=NCCN1
IRF Lucia reporter activity [2, 5]: 0.967

Cc1cc(Nc2cc(N3CCN(C)CC3)nc(Sc3ccc(NC(=O)C4CC4)cc3)n2)n[nH]1
IRF Lucia reporter activity [2, 5]: 0.524

Cc1cc(Nc2cc(N3CCN(C)CC3)nc(Sc3ccc(NC(=O)C4CC4)cc3)n2)n[nH]1 (library stock concentration (final ~1000-fold dilution): 10 mM)
IRF Lucia reporter activity [1, 4]: 0.117
IRF Lucia reporter activity ([1]; agonist: LPS (TLR4) 0.1 ug/mL): 0.512

O=C1c2ccc(O)cc2C(=O)c2ccc(O)cc21 (library stock concentration (final ~1000-fold dilution): 10 mM)
IRF Lucia reporter activity [1, 4]: 0.975
IRF Lucia reporter activity ([1]; agonist: LPS (TLR4) 0.1 ug/mL): 1.16

O=C1c2ccc(O)cc2C(=O)c2ccc(O)cc21
IRF Lucia reporter activity [2, 5]: 1.02

CC(C)c1c2cc(-c3ccnc(NC4CCC(NC5CCOCC5)CC4)n3)ccc2nn1C (stereo unspecified)
IRF Lucia reporter activity [2, 6]: 0.0225

CC(C)c1c2cc(-c3ccnc(NC4CCC(NC5CCOCC5)CC4)n3)ccc2nn1C (stereo unspecified) (library stock concentration (final ~1000-fold dilution): 10 mM)
IRF Lucia reporter activity [3, 4]: 0.0123
IRF Lucia reporter activity ([3]; agonist: LPS (TLR4) 0.1 ug/mL): 0.0195

CC(=O)Nc1nnc(S(N)(=O)=O)s1
IRF Lucia reporter activity [2, 5]: 1.01

CC(=O)Nc1nnc(S(N)(=O)=O)s1 (library stock concentration (final ~1000-fold dilution): 10 mM)
IRF Lucia reporter activity [1, 4]: 1.07
IRF Lucia reporter activity ([1]; agonist: LPS (TLR4) 0.1 ug/mL): 1.38

Nc1nc(OCc2cc(Br)cs2)c2[nH]cnc2n1 (library stock concentration (final ~1000-fold dilution): 10 mM)
IRF Lucia reporter activity [1, 4]: 0.354
IRF Lucia reporter activity ([1]; agonist: LPS (TLR4) 0.1 ug/mL): 0.525

CC1(C)CN(C(=O)c2ccc(-c3cccc4nc(NC(=O)C5CC5)nn34)cc2)C1 (library stock concentration (final ~1000-fold dilution): 10 mM)
IRF Lucia reporter activity [1, 4]: 0.308
IRF Lucia reporter activity ([1]; agonist: LPS (TLR4) 0.1 ug/mL): 0.577

CC1(C)CN(C(=O)c2ccc(-c3cccc4nc(NC(=O)C5CC5)nn34)cc2)C1
IRF Lucia reporter activity [2, 5]: 0.713

Clc1ccc(C2(c3ccc(-c4cn[nH]c4)cc3)CCNCC2)cc1
IRF Lucia reporter activity [2, 6]: 1.09

Clc1ccc(C2(c3ccc(-c4cn[nH]c4)cc3)CCNCC2)cc1 (library stock concentration (final ~1000-fold dilution): 10 mM)
IRF Lucia reporter activity [3, 4]: 0.215
IRF Lucia reporter activity ([3]; agonist: LPS (TLR4) 0.1 ug/mL): 1.04

CCS(=O)(=O)c1cccc(-c2cc(C(=O)NC3CCN(C)CC3)c(C)c3[nH]c4ncc(C)cc4c23)c1 (library stock concentration (final ~1000-fold dilution): 10 mM)
IRF Lucia reporter activity [3, 4]: 0.13
IRF Lucia reporter activity ([3]; agonist: LPS (TLR4) 0.1 ug/mL): 0.0788

CCS(=O)(=O)c1cccc(-c2cc(C(=O)NC3CCN(C)CC3)c(C)c3[nH]c4ncc(C)cc4c23)c1
IRF Lucia reporter activity [2, 6]: 0.112
